{
  "source": "ChEMBL document CHEMBL4888484",
  "about": "“Replenishing the malaria drug discovery pipeline: Screening and hit evaluation of the MMV Hit Generation Library 1 (HGL1) against asexual blood stage Plasmodium falciparum ,using a nano luciferase reporter read-out” (2022)",
  "note": "Screen size: about 150,000 compounds; about 540 (0.36%) showed an effect of 50% or more. Some of the results follow.",
  "data": [
    {"tested_on": "Plasmodium falciparum", "test": "Primary screen in NF54 nanoGlo assay, in single point, at 2uM, 72h; a lower Z score goes with more inhibition", "assay_type": "functional, Erythrocyte", "settings": "timepoint 72 hour", "units": {"% Inhibition": "%"}, "values": [
      {"molecule": "CN(C)CC[C@H]1CN(Cc2nc(-c3ccccc3)cs2)CCO1", "% Inhibition": -5, "Z score": 0.76},
      {"molecule": "CS(=O)(=O)c1ccc([C@H]2CC(O)=Nc3c2c(=O)[nH]n3C2CCCCCCC2)cc1", "% Inhibition": -3, "Z score": 0.47},
      {"molecule": "CO[C@H]1COC[C@H]1Nc1ccnc2c1c(C)nn2C", "% Inhibition": 10, "Z score": -1.3},
      {"molecule": "COc1cccc(CCN2CC(=O)N3CC[C@@H](O)C[C@H]3C2=O)c1", "% Inhibition": -1, "Z score": 0.25},
      {"molecule": "CNC(=O)N1CCC(Cc2ncc(C)n2Cc2ccc(F)cc2)CC1", "% Inhibition": -11, "Z score": 1.59},
      {"molecule": "CCCS(=O)(=O)N(C)CC(=O)N1CCC[C@H]1c1cccs1", "% Inhibition": -6, "Z score": 0.89},
      {"molecule": "Cc1cncc(NCc2cnc(N3CCOCC3)nc2)c1", "% Inhibition": -2, "Z score": 0.25},
      {"molecule": "c1coc([C@@H]2CN(CCCc3ccc4c(c3)CCO4)CCO2)c1", "% Inhibition": -4, "Z score": 0.36},
      {"molecule": "CCc1onc(C)c1[C@@H]1CCCN1Cc1ccc(OC)c(CN2CCOCC2)c1", "% Inhibition": -3, "Z score": 0.45},
      {"molecule": "O=C(CCCn1cccn1)N1CCC[C@H]1c1cccc(Cl)c1", "% Inhibition": 3, "Z score": -0.46},
      {"molecule": "O=S(=O)(CCC1CC1)Nc1ccc(Cl)cn1", "% Inhibition": -2, "Z score": 0.2},
      {"molecule": "NC(=O)CCn1cc(-c2csc3ccccc23)cn1", "% Inhibition": 0, "Z score": -0.07},
      {"molecule": "O=C(c1cc(=O)[nH]c2c1CCCC2)N1CCN[C@H](c2cn[nH]c2)C1", "% Inhibition": 1, "Z score": -0.13},
      {"molecule": "Cn1nc(-c2ccccc2)c(CN(CC2CC2)C[C@H](O)COC(C)(C)C)c1Oc1ccc(F)cc1F", "% Inhibition": 7, "Z score": -0.91},
      {"molecule": "CCN(Cc1noc(C)n1)Cc1nnc(C(C)C)o1", "% Inhibition": -19, "Z score": 3.23},
      {"molecule": "COc1ncccc1[C@H]1CCN(C(=O)c2c(Cl)cnn2C)C1", "% Inhibition": -13, "Z score": 2.39},
      {"molecule": "COc1ccc2[nH]cc([C@H]3C(NC(=O)c4ccc(Cl)cc4)=C(C)Nc4ncnn43)c2c1", "% Inhibition": 4, "Z score": -0.6},
      {"molecule": "COc1ccc(N2CCN(C(=O)C(=O)Nc3cc(Cl)ccc3OC)CC2)cc1", "% Inhibition": -2, "Z score": 0.39},
      {"molecule": "CCCN(CC1CC1)C(=O)[C@@H]1CC2(CN(Cc3ccccc3)C2)CN1C", "% Inhibition": -5, "Z score": 0.54},
      {"molecule": "COc1ccc(CN2CCN(CC3CC3)[C@@H]3CS(=O)(=O)C[C@@H]32)cc1O", "% Inhibition": -13, "Z score": 1.76},
      {"molecule": "O=S(=O)(Nc1ccccc1Oc1ccncc1)c1cccnc1", "% Inhibition": 20, "Z score": -2.51},
      {"molecule": "O=C(NC[C@H]1C[C@@H]1C1CCC1)N1CC(OCC(F)F)C1", "% Inhibition": -8, "Z score": 0.82},
      {"molecule": "O=C(Nc1ccc(Cl)cc1)c1cnn2c(=O)c3c([nH]c12)CCC3", "% Inhibition": -10, "Z score": 1.3},
      {"molecule": "CC(C)CC[C@@]1(C2CC2)NC(=O)N(Cc2cnsn2)C1=O", "% Inhibition": 18, "Z score": -2.11},
      {"molecule": "C[C@](C#N)(NC(=O)Cn1nnc(-c2ccco2)n1)C1CC1", "% Inhibition": -16, "Z score": 1.48},
      {"molecule": "COCc1noc(C[C@H]2CN(C(=O)Cc3sc(C)nc3C)CCO2)n1", "% Inhibition": -6, "Z score": 1.12},
      {"molecule": "COc1ccc(S(=O)(=O)N(C)Cc2c(C)noc2C)cc1", "% Inhibition": -7, "Z score": 1.06},
      {"molecule": "COCCOCCOc1ccc(COc2ccccc2CC(N)=O)cc1", "% Inhibition": 2, "Z score": -0.26},
      {"molecule": "Cc1[nH]c2c(F)cccc2c1CC(=O)N[C@H]1C[C@@H](c2cc(=O)[nH]c(N)n2)C1", "% Inhibition": -12, "Z score": 1.32},
      {"molecule": "COc1ccc(C(=O)Nc2ccc(-c3c(C4CC4)nn(-c4ccccc4)c3OC(C)=O)cc2)cc1", "% Inhibition": 2, "Z score": -0.19},
      {"molecule": "O=C(Nc1nc(-c2ccccc2Cl)ns1)N1CCO[C@@H](CO)C1", "% Inhibition": -7, "Z score": 1.31},
      {"molecule": "Cc1nc(N(C)C)sc1C(=O)Nc1ccc2c(c1)OCCO2", "% Inhibition": 1, "Z score": -0.23},
      {"molecule": "CCc1nc(-c2cc(S(=O)(=O)NC3CCCCCC3)c(C)s2)cs1", "% Inhibition": 9, "Z score": -1.03},
      {"molecule": "CS(=O)(=O)N(Cc1ccccc1F)Cc1nnc2n1CCOCC2", "% Inhibition": 22, "Z score": -2.81},
      {"molecule": "COc1ccc(NC(C)(C)C(=O)N2CCCN(S(=O)(=O)N3CCCC3)CC2)cc1", "% Inhibition": 10, "Z score": -2.03},
      {"molecule": "CS(=O)(=O)N1CC(CNc2ccnc3c(F)cccc23)C1", "% Inhibition": 6, "Z score": -0.73},
      {"molecule": "O=C(NCc1ccc(-c2cccc(Cl)c2)o1)[C@H]1CCC[C@H](O)C1", "% Inhibition": -17, "Z score": 2.97},
      {"molecule": "Cc1c(C(=O)NCC2CCN(c3noc(-c4ccccc4)n3)CC2)cnn1C", "% Inhibition": -10, "Z score": 1.97},
      {"molecule": "O=C(CCc1cc(Br)ccc1OC(F)F)N1CC[C@H](N2C(=O)COC2=O)C1", "% Inhibition": 15, "Z score": -1.73},
      {"molecule": "CN(CCC[C@H]1CCCO1)C(=O)c1ccc(-c2nccs2)cc1", "% Inhibition": -17, "Z score": 1.6},
      {"molecule": "COc1ccc(-c2nsc(C(=O)NCc3ccc(C)cc3)c2N)cc1", "% Inhibition": -29, "Z score": 3.37},
      {"molecule": "CCN(CC)Cc1nnc(C(C)(C)C)o1", "% Inhibition": -4, "Z score": 0.38}
    ]}
  ]
}
